Data from publication PMC4549061.
Read-outs that look alike come from different tables or passages of the source. No constants are given. Whether binding was seen depends on the method and setting. Binding seen in cells or lysates may run through a third protein. Some entries that bind do so weakly or less than the wild type. For some of these results: Where a sequence is shown, tags or fusion partners need not be part of it. One block for each molecule: values may come before it.

Protein sequences, listed by entry. Tags and fused reporters are not part of them. Lines headed by an entry give the natural chain unless they say otherwise; changes in a name come on top. Residues count along the entry.
UniProt Q04735: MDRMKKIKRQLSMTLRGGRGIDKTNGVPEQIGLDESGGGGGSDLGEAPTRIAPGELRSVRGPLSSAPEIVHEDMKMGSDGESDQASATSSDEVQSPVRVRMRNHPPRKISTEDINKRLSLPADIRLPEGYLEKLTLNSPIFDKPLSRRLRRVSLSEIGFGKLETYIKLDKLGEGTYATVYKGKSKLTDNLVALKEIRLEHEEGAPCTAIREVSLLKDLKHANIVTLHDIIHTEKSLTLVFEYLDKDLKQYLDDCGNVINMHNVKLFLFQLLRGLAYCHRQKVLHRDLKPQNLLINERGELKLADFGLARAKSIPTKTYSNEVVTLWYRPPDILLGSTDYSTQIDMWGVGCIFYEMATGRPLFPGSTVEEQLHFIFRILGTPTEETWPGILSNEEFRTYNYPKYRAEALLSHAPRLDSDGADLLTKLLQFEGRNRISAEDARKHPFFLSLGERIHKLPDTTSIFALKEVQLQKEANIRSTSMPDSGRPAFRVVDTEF
CDK16-Flag protein kinase domain alone: residues 165-446 of Q04735
UniProt D3YUJ3: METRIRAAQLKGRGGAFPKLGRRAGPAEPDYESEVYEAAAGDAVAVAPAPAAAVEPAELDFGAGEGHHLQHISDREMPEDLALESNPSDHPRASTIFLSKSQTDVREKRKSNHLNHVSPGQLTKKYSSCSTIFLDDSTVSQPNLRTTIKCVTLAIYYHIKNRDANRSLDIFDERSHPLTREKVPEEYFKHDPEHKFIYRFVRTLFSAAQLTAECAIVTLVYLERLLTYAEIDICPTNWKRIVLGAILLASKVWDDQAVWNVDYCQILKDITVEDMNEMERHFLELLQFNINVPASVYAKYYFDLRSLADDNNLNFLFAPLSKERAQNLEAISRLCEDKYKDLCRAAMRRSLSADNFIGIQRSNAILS

What was measured:
[1] = biological target: CDK16-Flag (C-terminal Flag-tagged cyclin-dependent kinase 16) (mouse) (UniProt Q04735); assay: co-IP; HEK293T cells co-transfected with HA- and Flag-tagged plasmids; lysed in IP buffer (150mM NaCl, 50mM Tris, 1mM EGTA, 0.2% NP-40); anti-HA or anti-Flag conjugated agarose, 4°C, 2 hours; western blot
[2] = biological target: CDK16-Flag S110A mutant (mouse) (UniProt Q04735); assay: as above
[3] = biological target: CDK16-Flag S110D mutant (mouse) (UniProt Q04735); assay: as above
[4] = biological target: CDK16-Flag S146A mutant (mouse) (UniProt Q04735); assay: as above
[5] = biological target: CDK16-Flag S146D mutant (mouse) (UniProt Q04735); assay: as above
[6] = biological target: CDK16-Flag S153A mutant (mouse) (UniProt Q04735); assay: as above
[7] = biological target: CDK16-Flag S153D mutant (mouse) (UniProt Q04735); assay: as above
[8] = biological target: CDK16-Flag S36A mutant (mouse) (UniProt Q04735); assay: as above
[9] = biological target: CDK16-Flag S36D mutant (mouse) (UniProt Q04735); assay: as above
[10] = biological target: CDK16-Flag S480A mutant (mouse) (UniProt Q04735); assay: as above
[11] = biological target: CDK16-Flag S480D mutant (mouse) (UniProt Q04735); assay: as above
[12] = biological target: CDK16-Flag S78A mutant (mouse) (UniProt Q04735); assay: as above
[13] = biological target: CDK16-Flag T175A mutant (mouse) (UniProt Q04735); assay: as above
[14] = biological target: CDK16-Flag T175D mutant (mouse) (UniProt Q04735); assay: as above
[15] = biological target: CDK16-Flag protein kinase domain alone (mouse) (UniProt Q04735); assay: as above
[16] = biological target: K194R CDK16-Flag mutant (kinase dead) (mouse) (UniProt Q04735); assay: as above
[17] = biological target: S119A CDK16-Flag mutant (mouse) (UniProt Q04735); assay: as above
[18] = biological target: cyclin-dependent kinase 16 (CDK16), endogenous in mouse testis (mouse (endogenous in testis)) (UniProt Q04735); assay: co-IP; mouse testicular lysate in IP buffer (150mM NaCl, 50mM Tris, 1mM EGTA, 0.2% NP-40); CDK16 immunoprecipitated with CDK16 antibody (1:40), 4°C, 2 hours; western blot for CCNYL1
[19] = biological target: CDK16-Flag (C-terminal Flag-tagged cyclin-dependent kinase 16) (mouse) (UniProt Q04735); assay: co-IP; HEK293T cells co-transfected with HA- and Flag-tagged plasmids; lysed in IP buffer (150mM NaCl, 50mM Tris, 1mM EGTA, 0.2% NP-40); anti-HA or anti-Flag conjugated agarose, 4°C, 2 hours; western blot; remark: listed apart in the source

binding [1]: binds
binding [2]: binds
binding [3]: binds
binding [4]: binds weakly
binding [5]: binds weakly
binding [6]: binds
binding [7]: binds
binding [8]: binds
binding [9]: binds
binding [10]: binds
binding [11]: binds
binding [12]: binds
binding [13]: binds
binding [14]: binds
binding [15]: no binding
binding [16]: binds
binding [17]: binds
Molecule: CCNYL1-HA (N-terminal HA-tagged Cyclin Y-like 1) (from UniProt D3YUJ3 1-367)

binding [18]: binds
Molecule: Cyclin Y-like 1 (CCNYL1), endogenous in mouse testis (from UniProt D3YUJ3 1-367)

binding [19]: binds
B1: CCNY-HA (HA-tagged Cyclin Y) (protein, UniProt Q8BGU5 1-341)
chain: MGNTTSCCVSSSPKLRRNAHSRLESYRPDTDLSREDTGCNLQHISDRENIDDLNMEFNPSDHPRASTIFLSKSQTDVREKRKSLFINHHPPGQTSRKYSSCSTIFLDDSTVSQPNLKYTIKCVALAIYYHIKNRDPDGRMLLDIFDENLHPLSKSEVPPDYDKHNPEQKQIYRFVRTLFSAAQLTAECAIVTLVYLERLLTYAEIDICPANWKRIVLGAILLASKVWDDQAVWNVDYCQILKDITVEDMNELERQFLELLQFNINVPSSVYAKYYFDLRSLAEANNLSFPLEPLSRERAHKLEAISRLCEDKYKDLRKPMRKRSASADNLILPRWSPAIIS
